# Screen size: about 310,000 compounds; about 2,200 (0.71%) showed an effect of 50% or more. Effects have a minus sign here. The list shows a part of the results.
# Target: human ether-à-go-go-related gene (hERG) potassium channel (human, UniProt Q12809)
# Assay: primary screen, population patch clamp on CHO cells stably expressing hERG
# Chain of human ether-à-go-go-related gene (hERG) potassium channel (Q12809 whole entry, looked up): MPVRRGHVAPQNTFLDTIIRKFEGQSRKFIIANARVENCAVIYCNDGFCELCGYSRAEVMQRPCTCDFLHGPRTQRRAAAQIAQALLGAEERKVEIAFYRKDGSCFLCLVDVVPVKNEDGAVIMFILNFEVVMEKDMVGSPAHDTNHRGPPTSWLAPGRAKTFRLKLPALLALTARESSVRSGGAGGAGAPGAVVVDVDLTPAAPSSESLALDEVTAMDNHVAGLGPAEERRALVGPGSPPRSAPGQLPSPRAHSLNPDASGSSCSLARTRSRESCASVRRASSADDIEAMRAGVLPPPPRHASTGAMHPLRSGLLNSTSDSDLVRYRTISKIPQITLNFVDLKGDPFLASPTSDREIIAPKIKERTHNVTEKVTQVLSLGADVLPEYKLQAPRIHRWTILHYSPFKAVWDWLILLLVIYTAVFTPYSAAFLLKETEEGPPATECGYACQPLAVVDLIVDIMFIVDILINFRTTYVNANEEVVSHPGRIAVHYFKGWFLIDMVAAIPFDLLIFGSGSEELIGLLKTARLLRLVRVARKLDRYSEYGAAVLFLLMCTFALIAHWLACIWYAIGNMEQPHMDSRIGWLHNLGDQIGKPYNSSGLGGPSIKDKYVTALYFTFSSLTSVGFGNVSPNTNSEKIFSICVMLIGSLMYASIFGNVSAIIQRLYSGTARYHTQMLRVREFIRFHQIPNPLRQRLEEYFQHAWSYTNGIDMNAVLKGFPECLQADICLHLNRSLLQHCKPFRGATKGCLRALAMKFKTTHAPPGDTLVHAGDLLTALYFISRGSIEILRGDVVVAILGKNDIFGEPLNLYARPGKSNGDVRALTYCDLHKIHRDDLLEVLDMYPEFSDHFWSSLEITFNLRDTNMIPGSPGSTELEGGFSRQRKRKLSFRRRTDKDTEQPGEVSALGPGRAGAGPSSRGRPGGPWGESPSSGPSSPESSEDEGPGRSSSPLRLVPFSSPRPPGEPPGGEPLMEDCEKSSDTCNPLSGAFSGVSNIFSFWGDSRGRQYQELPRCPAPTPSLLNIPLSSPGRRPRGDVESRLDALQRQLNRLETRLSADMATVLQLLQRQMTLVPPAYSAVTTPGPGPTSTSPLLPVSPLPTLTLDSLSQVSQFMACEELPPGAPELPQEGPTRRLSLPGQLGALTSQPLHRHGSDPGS
row,SMILES,"hERG current change (%, negative = inhibition) at 1uM [%]"
1,Cc1c(NS(=O)(=O)c2cc(C(=O)NCc3cccnc3)cc(Cl)c2Cl)c(=O)n(-c2ccccc2)n1C,11.3
2,Cc1cc(=O)n2nc(N3CCC(C(=O)Nc4c(F)c(F)c(F)c(F)c4F)CC3)sc2n1,10.4
3,COCCCNc1nc(N)c([N+](=O)[O-])c(NCC2CCCO2)n1 (centres unmarked),13.4
4,CCn1c(=O)n(CC)c2cc(N3CCCC3)c(NC(=O)c3ccccc3OC)cc21,11.7
5,O=C(Cn1c(=O)sc2ccccc21)NCc1ccccn1,8.34
6,CCOc1cc(CNc2ccccc2)cc(Br)c1OCc1ccccc1F,9.97
7,O=c1[nH]c2cccc(F)c2n2cccc12,11.7
8,O=C(CN1CCCCC1)Nc1cccc(Br)c1,-18.1
9,O=c1nc(-c2ccccc2)n(-c2ccccc2)[nH]1,10.2
10,Cc1ccc(C(=O)c2c3ccc(C(F)(F)F)cc3[n+]([O-])n2CCC[NH3+])cc1.O=C([O-])C(F)(F)F,-64.4
11,COc1ccc(N(C(=O)C(C)C)S(=O)(=O)c2ccc(Cl)cc2)cc1,-14.7
12,c1ccc(Cn2cnc3ccccc32)cc1,12.4
13,COc1cccc(-c2nc(CS(=O)(=O)CC(=O)N3CCN(c4ccccn4)CC3)c(C)o2)c1,1.26
14,Cc1ccsc1C(=O)N1CC(=O)Nc2ccccc21,19.4
15,O=C(C(=O)N1CCCc2ccccc21)c1c[nH]c2ccccc12,11.2
16,CC(=O)c1ccc(NC(=O)Nc2ccccc2)cc1,5.89
17,O=C(COC(=O)c1ccc(Br)o1)Nc1ccc2[nH]c(=O)[nH]c2c1,5.73
18,COc1ccccc1CN(Cc1cc2cc(C)ccc2[nH]c1=O)Cc1nnnn1CC1CCCO1 (centres unmarked),1.87
19,Cc1ccc(S(=O)(=O)N2CCN(C(=O)CSc3nncs3)CC2)cc1,5.48

row,SMILES,"hERG current change (%, negative = inhibition) at 1uM [%]"
1,O=C(COc1ccccc1F)N1CCc2ccccc2C1,-16.8
2,CCOc1ccc2nc(NC(=O)CN3CCN(C)CC3)sc2c1,-1.48
3,COc1cccc(NC(=O)c2nn(C34CC5CC(CC(C5)C3)C4)cc2[N+](=O)[O-])c1,-0.515
4,COc1ccc(C(=O)OCC(=O)c2c(N)n(C)c(=O)n(C)c2=O)cc1OC,6.56
5,CC(C)c1ccc(S(=O)(=O)N2CCN(C(C)C(=O)NC3CCCC3)CC2)cc1 (centres unmarked),-4.92
6,C=CCSc1nc(N)c(C(=O)Nc2ccccc2OC)cc1C(=O)Nc1ccccc1,4.49
7,Cl.c1ccc(-c2ccc(OCCN3CCOCC3)cc2)cc1,11.9
8,CCOC(=O)c1c(C=O)c2ccccc2n1Cc1ccccc1F,9.37
9,COCc1c(C(=O)OCC(=O)Nc2ccc(OC(F)F)cc2)oc2ccccc12,7.56
10,O=C(c1ccc(Cl)cc1)N1CCN(S(=O)(=O)/C=C/c2ccccc2)CC1,-6.77
11,N#C/C(=C\c1cccc2ccccc12)c1nn(-c2ccccc2)c(N)c1C#N,5.93
12,Cc1nc(C(F)(F)F)c(C(=O)N/N=C(\N)c2ccccn2)s1,5.96
13,COc1ccc(-c2nnc(SCC(=O)NCCC(C)C)nc2-c2ccc(OC)c(OC)c2)cc1OC,1.34
14,c1ccc(Oc2nnc(-c3cccs3)c3ccccc23)cc1,-8.42
15,O=c1c(-c2ccco2)[n+]([O-])c2ccccc2n1OCc1c(F)cccc1F,13.1
16,C/C(N)=C(/C#N)C(=O)COC(=O)CCSc1ccccc1,16.3
17,O=c1[nH]c(=S)n(-c2ccccc2F)c(O)c1C=NCCN1CCNCC1,12.5
18,Cc1cccc(CNCCc2ccccc2)n1.Cl,1.19
19,Cc1cc(C)c(C(=O)COC(=O)C2CCN(c3ccc(C(F)(F)F)cn3)CC2)cc1C,8.71

row,SMILES,"hERG current change (%, negative = inhibition) at 1uM [%]"
1,COC(=O)c1cn(Cc2ccccn2)c(=O)c2ccccc12,5.73
2,O=C(NCc1ccc(OC(F)(F)F)cc1)c1ccc2c(c1)S(=O)(=O)c1ccccc1C2=O,0.355
3,Cl.Nc1cccc2[nH]c(C(F)(F)F)nc12,14.6
4,COc1ccc(N=Cc2sc3ccccc3c2Cl)cc1,16.6
5,CCN1CCN(c2ccc(S(=O)(=O)N3CCCCC3)cc2NC(=O)/C=C/c2ccc([N+](=O)[O-])cc2)CC1,6.53
6,Cc1cc(C)c2cc(C#N)c(SCC(=O)Nc3ccc4c(c3)OCO4)nc2c1,13.7
7,COc1ccccc1NC(=O)c1cn(CCC#N)nc1-c1cccc(Cl)c1,13.6
8,Cc1nc(SCC(=O)NCC(F)(F)F)c2c(-c3cccs3)csc2n1,5.71
9,O=C(CSc1nnnn1-c1ccccc1)Nc1ccccc1,17.9
10,CC(C)OC(=O)CCCNc1ccc([N+](=O)[O-])cc1[N+](=O)[O-],3.75
11,OCCN1CCN(c2ncnc3sc(-c4ccccc4)cc23)CC1,3.72
12,COc1ccc(NC(=O)N/C=C/c2ccco2)cc1,14.7
13,CC(=O)O.CNc1nc(N/N=C/c2cc3c(cc2[N+](=O)[O-])OCO3)nc(Nc2ccccc2)n1,12.5
14,COc1cccc(C(=O)NCC(=O)OCC(=O)C(C)(C)C)c1,8.92
15,COCCNC(=O)c1ccccc1NC(=O)COc1ccccc1,2.56
16,COc1ccccc1CNC(=O)N1CCN(c2ccccc2Cl)CC1,8.42
17,COc1ccc(-c2csc(NC(=O)c3ccc(S(C)(=O)=O)cc3)n2)cc1,4.87
18,Cc1ccc2cc(CN(Cc3cccs3)Cc3nnnn3CC3CCCO3)c(=O)[nH]c2c1 (centres unmarked),8.88

# — PMC4336329 (PLoS ONE, 2015)
